The assay addresses BRD4 (BDII_E352-M457) (Homo sapiens, UniProt O60885). The assay is described as follows: TR-FRET bromodomain binding assay, BRD4 BDII. As to the method:
A time-resolved fluorescence resonance energy transfer (TR-FRET) assay was used to determine the affinities of compounds of the Examples listed in Table 1 for each bromodomain of BRD4. […] An Alexa647-labeled BET-inhibitor was used as the fluorescent probe in the assay.
Compound dilution series were prepared in DMSO via an approximately 3-fold serial dilution. Compound dilutions were added directly into white, low-volume assay plates (Perkin Elmer Proxiplate 384 Plus #6008280) using a Labcyte Echo in conjunction with Labcyte Access and Thermo Multidrop CombinL robotics. Compounds were then suspended in eight microliters (μL) of assay buffer (20 mM Sodium Phosphate, pH 6.0, 50 mM NaCl, 1 mM Ethylenediaminetetraacetic acid disodium salt dihydrate, 0.01% Triton X-100, 1 mM DL-Dithiothreitol) containing His-tagged bromodomain, Europium-conjugated anti-His antibody (Invitrogen PV5596) and Alexa-647-conjugated probe.
After a one-hour equilibration at room temperature, TR-FRET ratios were determined using an Envision multilabel plate reader (Ex 340, Em 495/520).
TR-FRET data were normalized to the means of 24 no-compound controls (“high”) and 8 controls containing 1 μM un-labeled probe (“low”). Percent inhibition was plotted as a function of compound concentration and the data were fit with the 4 parameter logistic equation to obtain IC50s. Inhibition constants (Ki) were calculated from the IC50s, probe Kd and probe concentration.
Compound dilution series for Compounds A-E were prepared in DMSO via an approximately 3-fold serial dilution from 0.47 mM to 7.8 nM.
Compound dilutions were added directly into white, low-volume assay plates (Perkin Elmer Proxiplate 384 Plus #6008280) using a Labcyte Echo in conjunction with Labcyte Access and Thermo Multidrop CombinL robotics. Compounds were then suspended in eight microliters (μL) of assay buffer (20 mM Sodium Phosphate, pH 6.0, 50 mM NaCl, 1 mM Ethylenediaminetetraacetic acid disodium salt dihydrate, 0.01% Triton X-100, 1 mM DL-Dithiothreitol) containing His-tagged bromodomain, Europium-conjugated anti-His antibody (Invitrogen PV5596) and Alexa-647-conjugated probe.
The final concentration of 1× assay mixture contained 2% DMSO, 8 nM His-tagged bromodomain, 1 nM Europium-conjugated anti-His-tag antibody and 100 nM or 30 nM probe (for BDI or BDII, respectively) and compound concentration in the range of 9.19 μM-150 pM.
TR-FRET data were normalized to the means of 24 no-compound controls (“high”) and 8 controls containing 1 μM un-labeled probe (“low”). Percent inhibition was plotted as a function of compound concentration and the data were fit with the 4 parameter logistic equation to obtain IC50s. Inhibition constants (Ki) were calculated from the IC50s, probe Kd and probe concentration. Typical Z′ values were between 0.65 and 0.75. The minimum significant ratio was determined to evaluate assay reproducibility (Eastwood et al., (2006) J Biomol Screen, 11: 253-261). The MSR was determined to be 2.03 for BDI and 1.93 for BDII, and a moving MSR (last six run MSR overtime) for both BDI and BDII was typically <3.
Background: TR-FRET usually uses a lanthanide donor and a delayed reading to cut background.

We go through 18 compounds from patent US20210047304A1, “Bromodomain Inhibitors” (AbbVie Inc., priority 2016, published 2021).

Broadly, the Ki is the dissociation constant of the complex between target and ligand, obtained from inhibition or displacement. A lower Ki goes with a stronger hold on the target. `COC(=O)N[C@H]1CC[C@H](Oc2cc(=O)n(C)cc2-c2cc(C(C)(C)O)ccc2Oc2c(C)cc(C(C)(C)O)cc2C)CC1` [Example 20, methyl {trans-4-[(5-{5-(2-hydroxypropan-2-yl)-2-[4-(2-hydroxypropan-2-yl)-2,6-dimethylphenoxy]phenyl}-1-methyl-2-oxo-1,2-dihydropyridin-4-yl)oxy]cyclohexyl}carbamate] showed a Ki of 1.06 nM.

Take `CC(=O)C(=O)N[C@H]1CC[C@H](Oc2cc(=O)n(C)cc2-c2cc(C(C)(C)O)ccc2Oc2c(C)cc(F)cc2C)CC1` [Example 56, N-[trans-4-({5-[2-(4-fluoro-2,6-dimethylphenoxy)-5-(2-hydroxypropan-2-yl)phenyl]-1-methyl-2-oxo-1,2-dihydropyridin-4-yl}oxy)cyclohexyl]-2-oxopropanamide]: the Ki came to 8.4 nM. This Ki is about 7.9-fold higher than that of the compound before.

For `Cc1cc(F)cc(C)c1Oc1ccc(C(C)(C)O)cc1-c1cn(C)c(=O)cc1O[C@H]1CC[C@H](NC(=O)CCO)CC1` [Example 49, N-[trans-4-({5-[2-(4-fluoro-2,6-dimethylphenoxy)-5-(2-hydroxypropan-2-yl)phenyl]-1-methyl-2-oxo-1,2-dihydropyridin-4-yl}oxy)cyclohexyl]-3-hydroxypropanamide], the inhibition constant (Ki) worked out at 4.83 nM.

For `Cc1cc(F)cc(C)c1Oc1ccc(C(C)(C)O)cc1-c1cn(C)c(=O)cc1O[C@H]1CC[C@H](C#N)CC1` [Example 69, trans-4-({5-[2-(4-fluoro-2,6-dimethylphenoxy)-5-(2-hydroxypropan-2-yl)phenyl]-1-methyl-2-oxo-1,2-dihydropyridin-4-yl}oxy)cyclohexane-1-carbonitrile], the affinity, expressed as Ki, was 12.2 nM.

Compound `COCCCN(C(=O)C1(C)CC1)[C@H]1CC[C@H](Oc2cc(=O)n(C)cc2-c2cc(C(C)(C)O)ccc2Oc2c(C)cc(F)cc2C)CC1` [Example 65, N-[trans-4-({5-[2-(4-fluoro-2,6-dimethylphenoxy)-5-(2-hydroxypropan-2-yl)phenyl]-1-methyl-2-oxo-1,2-dihydropyridin-4-yl}oxy)cyclohexyl]-N-(3-methoxypropyl)-1-methylcyclopropane-1-carboxamide] yielded an inhibitory constant (Ki) of 8.84 nM.

For `Cc1cc(F)cc(C)c1Oc1ccc(C(C)(C)O)cc1-c1cn(C)c(=O)cc1O[C@H]1CC[C@H](NC(=O)C23CCC(NC(=O)OC(C)(C)C)(C2)C3)CC1` (relative stereo) [Example 103, tert-butyl (4-{[trans-4-({5-[2-(4-fluoro-2,6-dimethylphenoxy)-5-(2-hydroxypropan-2-yl)phenyl]-1-methyl-2-oxo-1,2-dihydropyridin-4-yl}oxy)cyclohexyl]carbamoyl}bicyclo[2.1.1]hexan-1-yl)carbamate], the Ki worked out at 8.97 nM.

`Cc1cc(F)cc(C)c1Oc1ccc(C(C)(C)O)cc1-c1cn(C)c(=O)cc1O[C@H]1CC[C@H](n2nccc2O)CC1` [Example 114, 5-[2-(4-fluoro-2,6-dimethylphenoxy)-5-(2-hydroxypropan-2-yl)phenyl]-4-{[trans-4-(5-hydroxy-1H-pyrazol-1-yl)cyclohexyl]oxy}-1-methylpyridin-2(1H)-one]: the affinity corresponds to a Ki of 6.07 nM.

For `Cc1cc(F)cc(C)c1Oc1ccc(C(C)(C)O)cc1-c1cn(C)c(=O)cc1O[C@H]1CC[C@H](CNC(=O)OC(C)(C)C)CC1` [Example 15, tert-butyl [trans-4-({5-[2-(4-fluoro-2,6-dimethylphenoxy)-5-(2-hydroxypropan-2-yl)phenyl]-1-methyl-2-oxo-1,2-dihydropyridin-4-yl}oxy)cyclohexyl]methylcarbamate], the affinity corresponds to a Ki of 6.33 nM.

In the case of `Cc1cc(F)cc(C)c1Oc1ccc(C(C)(C)O)cc1-c1cn(C)c(=O)cc1O[C@H]1CC[C@H](NC(=O)C(C)(C)CCO)CC1` [Example 47, N-[trans-4-({5-[2-(4-fluoro-2,6-dimethylphenoxy)-5-(2-hydroxypropan-2-yl)phenyl]-1-methyl-2-oxo-1,2-dihydropyridin-4-yl}oxy)cyclohexyl]-4-hydroxy-2,2-dimethylbutanamide], the Ki was 6.18 nM.

For the compound `Cc1cc(F)cc(C)c1Oc1ccc(C(C)(C)O)cc1-c1cn(C)c(=O)cc1O[C@H]1CC[C@H](NC(=O)C2(C)COC2)CC1` [Example 73, N-[trans-4-({5-[2-(4-fluoro-2,6-dimethylphenoxy)-5-(2-hydroxypropan-2-yl)phenyl]-1-methyl-2-oxo-1,2-dihydropyridin-4-yl}oxy)cyclohexyl]-3-methyloxetane-3-carboxamide], the inhibition constant (Ki) came to 5.22 nM.

For the compound `Cc1cc(F)cc(C)c1Oc1ccc(C(C)(C)O)cc1-c1cn(C)c(=O)cc1O[C@H]1CC[C@H](NC(=O)c2ccccc2C(=O)O)CC1` [Example 45, 2-{[trans-4-({5-[2-(4-fluoro-2,6-dimethylphenoxy)-5-(2-hydroxypropan-2-yl)phenyl]-1-methyl-2-oxo-1,2-dihydropyridin-4-yl}oxy)cyclohexyl]carbamoyl}benzoic acid], the affinity, expressed as Ki, was 11 nM.

The compound `CCOC(=O)CN(C(=O)C1(C)CC1)[C@H]1CC[C@H](Oc2cc(=O)n(C)cc2-c2cc(C(C)(C)O)ccc2Oc2c(C)cc(F)cc2C)CC1` [Example 66, ethyl N-[trans-4-({5-[2-(4-fluoro-2,6-dimethylphenoxy)-5-(2-hydroxypropan-2-yl)phenyl]-1-methyl-2-oxo-1,2-dihydropyridin-4-yl}oxy)cyclohexyl]-N-(1-methylcyclopropane-1-carbonyl)glycinate] displayed a Ki of 8.33 nM.

`Cc1cc(F)cc(C)c1Oc1ccc(C(C)(C)O)cc1-c1cn(C)c(=O)cc1O[C@H]1C[C@@H](C(C)(C)O)C1` [Example 94, 5-[2-(4-fluoro-2,6-dimethylphenoxy)-5-(2-hydroxypropan-2-yl)phenyl]-4-{[cis-3-(2-hydroxypropan-2-yl)cyclobutyl]oxy}-1-methylpyridin-2(1H)-one] showed a Ki of 134 nM.

Consider `Cc1cc(F)cc(C)c1Oc1ccc(C(C)(C)O)cc1-c1cn(C)c(=O)cc1O[C@H]1C[C@@H](C(=O)N2CCCC2)C1` [Example 96, 5-[2-(4-fluoro-2,6-dimethylphenoxy)-5-(2-hydroxypropan-2-yl)phenyl]-1-methyl-4-{[cis-3-(pyrrolidine-1-carbonyl)cyclobutyl]oxy}pyridin-2(1H)-one], for which the Ki came to 10.8 nM.

As to `Cc1cc(F)cc(C)c1Oc1ccc(C(C)(C)O)cc1-c1cn(C)c(=O)cc1O[C@H]1CC[C@H](N2C(=O)N(C)C3(CC3)C2=O)CC1` [Example 145, 6-[trans-4-({5-[2-(4-fluoro-2,6-dimethylphenoxy)-5-(2-hydroxypropan-2-yl)phenyl]-1-methyl-2-oxo-1,2-dihydropyridin-4-yl}oxy)cyclohexyl]-4-methyl-4,6-diazaspiro[2.4]heptane-5,7-dione], affinity was put at a Ki of 4.48 nM.

With `Cc1cc(F)cc(C)c1Oc1ccc(C(C)(C)O)cc1-c1cn(C)c(=O)cc1O[C@H]1CC[C@H](n2cnccc2=O)CC1` [Example 144, 3-[trans-4-({5-[2-(4-fluoro-2,6-dimethylphenoxy)-5-(2-hydroxypropan-2-yl)phenyl]-1-methyl-2-oxo-1,2-dihydropyridin-4-yl}oxy)cyclohexyl]pyrimidin-4(3H)-one], the Ki was found to be 37.4 nM.

Regarding `Cc1cc(F)cc(C)c1Oc1ccc(C(C)(C)O)cc1-c1cn(C)c(=O)cc1O[C@H]1CC[C@H](NC(=O)N2CCNC2=O)CC1` [Example 123, N-[trans-4-({5-[2-(4-fluoro-2,6-dimethylphenoxy)-5-(2-hydroxypropan-2-yl)phenyl]-1-methyl-2-oxo-1,2-dihydropyridin-4-yl}oxy)cyclohexyl]-2-oxoimidazolidine-1-carboxamide], affinity was put at a Ki of 3.37 nM.

`CCOC(=O)CC(=O)N[C@H]1CC[C@H](Oc2cc(=O)n(C)cc2-c2cc(C(C)(C)O)ccc2Oc2c(C)cc(F)cc2C)CC1` [Example 55, ethyl 3-{[trans-4-({5-[2-(4-fluoro-2,6-dimethylphenoxy)-5-(2-hydroxypropan-2-yl)phenyl]-1-methyl-2-oxo-1,2-dihydropyridin-4-yl}oxy)cyclohexyl]amino}-3-oxopropanoate] yielded a Ki of 2.78 nM.
